The source gives many values for each of these; only a part stands here.
Tests used:
[1] = test system: New Zealand rabbits with normal intraocular pressure; assay: Repeated eye-drop administration for 14 days, experiment operation 2: Day 1 intraocular pressure; assay type: in vivo; details: group minus negative control
Text: (§1) Experimental example 4. Experiment on reduction of intraocular pressure and ocular toxicity of New Zealand rabbits with normal intraocular pressure by repeated eye-drop administration for 14 days
(§2) The intraocular pressure reduction action and the potential ocular toxicity of compound 63 were explored by 14 days of repeated eye-drop administration in rabbits with normal intraocular pressure.
(§3) Male New Zealand rabbits, aged 97-127 days, weighted 2.6-3.5 kg, purchased from PizhouDongfang Breeding Co. Ltd.
42 male New Zealand rabbits were randomly divided into 7 groups, with 6 rabbits per group. Animals were randomly divided according to body weight Animals in 1-7 groups were eye-dropped with normal saline in the left eye and with solvent/control sample/test sample in the right eye respectively by a volume of 50 μL/eye, once per day for 14 consecutive days, and the day of administration was recorded as Day 1. The intraocular pressure of the animals was measured before Day 1 administration and in 1, 2, 4, 6, 8 and 10 hours after Day 1 administration, respectively (Table 8).

[2] = test system: New Zealand rabbits with normal intraocular pressure; assay: Reduction of intraocular pressure by repeated eye-drop administration for 14 days, experiment operation 1; assay type: in vivo
Text: as §1, §2, §3
The male New Zealand rabbits were randomly divided into 7 groups, with 6 rabbits per group. Animals were randomly divided according to body weight Animals in 1-7 groups were eye-dropped with solvent/control sample/test sample in both eyes, the volume of the administration was all 50 μL/eye, once per day for 14 consecutive days, and the day of the administration was recorded as Day 1. On Day 1, intraocular pressure of the animals was measured before the administration and in 1, 2, 4, 6, 8 and 10 hours after the administration, respectively; on Days 2-14, intraocular pressure of the animals was measured in 1 hour after daily administration for the group administered with K-115, and intraocular pressure of the animal was measured in 4 hours after daily administration for the other groups.

Cc1ccc(C(=O)OCn2cc(C)c3c(S(=O)(=O)N4CC[C@H](N)C4)cccc3c2=O)c(C)c1 [Compound 63]
Change of intraocular pressure ([1]; 0.25 mg/mL, 1 hour after administration): −2.67 mmHg
Change of intraocular pressure ([1]; 0.25 mg/mL, 2 hours after administration): −3.39 mmHg
Change of intraocular pressure ([1]; 0.25 mg/mL, 4 hours after administration): −3.22 mmHg
Change of intraocular pressure ([1]; 0.25 mg/mL, 6 hours after administration): −2.72 mmHg
Change of intraocular pressure ([1]; 0.25 mg/mL, 8 hours after administration): −0.66 mmHg
Change of intraocular pressure ([1]; 0.25 mg/mL, 10 hours after administration): −1.22 mmHg
Change of intraocular pressure ([1]; 0.25 mg/mL, before administration): 0.50 mmHg
Change of intraocular pressure ([1]; 0.5 mg/mL, 1 hour after administration): −3.50 mmHg
Change of intraocular pressure ([1]; 0.5 mg/mL, 2 hours after administration): −4.05 mmHg
Change of intraocular pressure ([1]; 0.5 mg/mL, 4 hours after administration): −2.94 mmHg
Change of intraocular pressure ([1]; 0.5 mg/mL, 6 hours after administration): −1.84 mmHg
Change of intraocular pressure ([1]; 0.5 mg/mL, 8 hours after administration): −0.50 mmHg
Change of intraocular pressure ([1]; 0.5 mg/mL, 10 hours after administration): −0.61 mmHg
Change of intraocular pressure ([1]; 0.5 mg/mL, before administration): −0.11 mmHg
Change of intraocular pressure ([1]; 1.0 mg/mL, 1 hour after administration): −3.33 mmHg
Change of intraocular pressure ([1]; 1.0 mg/mL, 2 hours after administration): −4.17 mmHg
Change of intraocular pressure ([1]; 1.0 mg/mL, 4 hours after administration): −3.22 mmHg
Change of intraocular pressure ([1]; 1.0 mg/mL, 6 hours after administration): −3.45 mmHg
Change of intraocular pressure ([1]; 1.0 mg/mL, 8 hours after administration): 0.11 mmHg
Change of intraocular pressure ([1]; 1.0 mg/mL, 10 hours after administration): −1.28 mmHg
Change of intraocular pressure ([1]; 1.0 mg/mL, before administration): −0.17 mmHg
Change of intraocular pressure ([1]; 2.0 mg/mL, 1 hour after administration): −0.78 mmHg
Change of intraocular pressure ([1]; 2.0 mg/mL, 2 hours after administration): −3.72 mmHg
Change of intraocular pressure ([1]; 2.0 mg/mL, 4 hours after administration): −3.83 mmHg
Change of intraocular pressure ([1]; 2.0 mg/mL, 6 hours after administration): −3.67 mmHg
Change of intraocular pressure ([1]; 2.0 mg/mL, 8 hours after administration): −1.39 mmHg
Change of intraocular pressure ([1]; 2.0 mg/mL, 10 hours after administration): −2.11 mmHg
Change of intraocular pressure ([1]; 2.0 mg/mL, before administration): 0.39 mmHg
Change of intraocular pressure ([1]; 4 mg/mL, 1 hour after administration): −2.28 mmHg
Change of intraocular pressure ([1]; 4 mg/mL, 2 hours after administration): −3.72 mmHg
Change of intraocular pressure ([1]; 4 mg/mL, 4 hours after administration): −4.17 mmHg
Change of intraocular pressure ([1]; 4 mg/mL, 6 hours after administration): −4.17 mmHg
Change of intraocular pressure ([1]; 4 mg/mL, 8 hours after administration): −2.00 mmHg
Change of intraocular pressure ([1]; 4 mg/mL, 10 hours after administration): −1.50 mmHg
Change of intraocular pressure ([1]; 4 mg/mL, before administration): 0.67 mmHg
Mean intraocular pressure of both eyes ([2]; 0.5 mg/mL once per day, Day 8, 4 hours after daily administration): 7.11 mmHg
Mean intraocular pressure of both eyes ([2]; 0.5 mg/mL once per day, Day 9, 4 hours after daily administration): 6.19 mmHg
Mean intraocular pressure of both eyes ([2]; 0.5 mg/mL once per day, Day 10, 4 hours after daily administration): 6.75 mmHg
Mean intraocular pressure of both eyes ([2]; 0.5 mg/mL once per day, Day 11, 4 hours after daily administration): 6.44 mmHg
Mean intraocular pressure of both eyes ([2]; 0.5 mg/mL once per day, Day 12, 4 hours after daily administration): 6.25 mmHg
Mean intraocular pressure of both eyes ([2]; 0.5 mg/mL once per day, Day 13, 4 hours after daily administration): 8.08 mmHg
Mean intraocular pressure of both eyes ([2]; 0.5 mg/mL once per day, Day 14, 4 hours after daily administration): 7.25 mmHg
Mean intraocular pressure of both eyes ([2]; 1.0 mg/mL once per day, Day 8, 4 hours after daily administration): 7.28 mmHg
Mean intraocular pressure of both eyes ([2]; 1.0 mg/mL once per day, Day 9, 4 hours after daily administration): 6.94 mmHg
Mean intraocular pressure of both eyes ([2]; 1.0 mg/mL once per day, Day 10, 4 hours after daily administration): 7.31 mmHg
Mean intraocular pressure of both eyes ([2]; 1.0 mg/mL once per day, Day 11, 4 hours after daily administration): 7.50 mmHg
Mean intraocular pressure of both eyes ([2]; 1.0 mg/mL once per day, Day 12, 4 hours after daily administration): 6.89 mmHg
Mean intraocular pressure of both eyes ([2]; 1.0 mg/mL once per day, Day 13, 4 hours after daily administration): 8.06 mmHg
Mean intraocular pressure of both eyes ([2]; 1.0 mg/mL once per day, Day 14, 4 hours after daily administration): 7.44 mmHg
Mean intraocular pressure of both eyes ([2]; 2.0 mg/mL once per day, Day 8, 4 hours after daily administration): 6.78 mmHg
Mean intraocular pressure of both eyes ([2]; 2.0 mg/mL once per day, Day 9, 4 hours after daily administration): 5.72 mmHg
Mean intraocular pressure of both eyes ([2]; 2.0 mg/mL once per day, Day 10, 4 hours after daily administration): 5.94 mmHg
Mean intraocular pressure of both eyes ([2]; 2.0 mg/mL once per day, Day 11, 4 hours after daily administration): 6.03 mmHg
Mean intraocular pressure of both eyes ([2]; 2.0 mg/mL once per day, Day 12, 4 hours after daily administration): 6.03 mmHg
Mean intraocular pressure of both eyes ([2]; 2.0 mg/mL once per day, Day 13, 4 hours after daily administration): 7.11 mmHg
Mean intraocular pressure of both eyes ([2]; 2.0 mg/mL once per day, Day 14, 4 hours after daily administration): 7.06 mmHg
Mean intraocular pressure of both eyes ([2]; 4.0 mg/mL once per day, Day 8, 4 hours after daily administration): 6.78 mmHg
Mean intraocular pressure of both eyes ([2]; 4.0 mg/mL once per day, Day 9, 4 hours after daily administration): 5.47 mmHg
Mean intraocular pressure of both eyes ([2]; 4.0 mg/mL once per day, Day 10, 4 hours after daily administration): 5.08 mmHg
Mean intraocular pressure of both eyes ([2]; 4.0 mg/mL once per day, Day 11, 4 hours after daily administration): 5.83 mmHg
Mean intraocular pressure of both eyes ([2]; 4.0 mg/mL once per day, Day 12, 4 hours after daily administration): 5.89 mmHg
Mean intraocular pressure of both eyes ([2]; 4.0 mg/mL once per day, Day 13, 4 hours after daily administration): 7.03 mmHg
Mean intraocular pressure of both eyes ([2]; 4.0 mg/mL once per day, Day 14, 4 hours after daily administration): 6.33 mmHg
Mean intraocular pressure of both eyes ([2]; 8.0 mg/mL once per day, Day 8, 4 hours after daily administration): 5.72 mmHg
Mean intraocular pressure of both eyes ([2]; 8.0 mg/mL once per day, Day 9, 4 hours after daily administration): 5.19 mmHg
Mean intraocular pressure of both eyes ([2]; 8.0 mg/mL once per day, Day 10, 4 hours after daily administration): 5.56 mmHg
Mean intraocular pressure of both eyes ([2]; 8.0 mg/mL once per day, Day 11, 4 hours after daily administration): 5.53 mmHg
Mean intraocular pressure of both eyes ([2]; 8.0 mg/mL once per day, Day 12, 4 hours after daily administration): 5.56 mmHg
Mean intraocular pressure of both eyes ([2]; 8.0 mg/mL once per day, Day 13, 4 hours after daily administration): 6.67 mmHg
Mean intraocular pressure of both eyes ([2]; 8.0 mg/mL once per day, Day 14, 4 hours after daily administration): 6.94 mmHg

Source: US12459918B2, “Isoquinolinone derivatives serving as rock protein kinase inhibitors and use thereof” (GUANGZHOU OCUSUN OPHTHALMIC BIOTECHNOLOGY CO., LTD., priority 2019, dated 2025)
